# Reference: paper PMC5515408
# The list shows a part of the results. At the low end of the ranking the order means little.
# Tested on: MYC (p64) + MAX (p21), in MYC:MAX
# Test: protein-binding microarray (anti-MAX antibody)
# Conditions: PBM: 15 mM Tris-HCl pH 7.5, 100 mM KCl, 0.075% NP40, 7.5 mM beta-mercaptoethanol, 375 ng/ul BSA, 8 ng/ul poly(dA-dT):(dA-dT), 550 ng complex, 60 min, room …; high values mean tight binding; double strand, one strand shown; sequences stand for … in CCGGC…TTAATAGCTAAGATTACTATATCGACG
row,Sequence,binding signal (log2 normalized fluorescence)
1,TGACTTTCGGTA,-0.076
2,TGACCTCCTGTA,0.384
3,TGACGACTTGTA,-0.0481
4,TGAGGGGTCGTA,0.386
5,TGATCGACTGTA,-0.153
6,TGAGTCGACGTA,0.0636
7,GGACACTTGGTA,0.32
8,TGAGCGGACGTA,-0.0167
9,TGATCTCAGGTA,0.00788
10,TGACTCTATGTA,-0.00932
11,TGAGTACGAGTA,-0.0398
12,TGATGGAAGGTA,0.109
13,TGAACGTTAGTA,0.206
14,TGACCTTTTGTA,-0.012
15,TGACTACAAGTA,0.0188
16,TGATAACTCGTA,0.125
17,TGATGCAGTGTA,0.00507
18,TGATGTTCGGTA,0.113
19,TGAATGCTGGTA,0.126
20,TGAACTGGAGTA,-0.0589
21,TGGCAGGTGGTA,0.416
22,TGAAGTTAAGTA,-0.144
23,TGAGAGCGTGTA,0.498
24,TGATTGAGAGTA,-0.276
25,TGAGATTGTGTA,-0.0377

row,Sequence,binding signal (log2 normalized fluorescence)
1,TGATCCACTGTA,0.076
2,TGAATCAAGGTA,0.109
3,TGAAGGTGCGTA,0.236
4,TGACACAGCGTA,0.201
5,TGAATAACGGTA,-0.0655
6,TGACTTCCAGTA,0.0624
7,TGGCCCGTTGTA,-0.0579
8,TGAAGACTCGTA,0.0662
9,TGAACATTGGTA,0.289
10,TGAAGTCGTGTA,0.228
11,TGAAGCTAAGTA,-0.283
12,TGACTCGATGTA,0.337
13,GACCACGTGGTA,0.741
14,TGAGCGTTGGTA,0.234
15,TGAGAGTTCGTA,-0.215
16,TGATAAGCTGTA,-0.106
17,CATCACGTGGTA,0.764
18,TGACACGGCATA,0.297
19,TGAATTGTTGTA,0.0647
20,TGAGACACCGTA,0.145
21,TGACTGGGTGTA,0.195
22,TGACATGTCGTA,0.416
23,TGACGGCAGGTA,-0.00507
24,TGACCATGAGTA,0.373
25,TGAATCTCTGTA,-0.00748

row,Sequence,binding signal (log2 normalized fluorescence)
1,TGATAGCTAGTA,-0.158
2,TGAACTTCGGTA,-0.0261
3,TGATGTATCGTA,0.124
4,TGAAGCACCGTA,0.16
5,TTACACGGGGTC,0.666
6,TGATCCCTGGTA,0.0924
7,TGATTCACCGTA,0.084
8,TGAGGAGCGGTA,0.0241
9,TGAAGTCTCGTA,0.103
10,TGATGCGTGGTA,0.425
11,TGAACTGTCGTA,0.131
12,TGACGCATCGTA,0.152
13,TGAGATAGGGTA,-0.108
14,TGACGTTTTGTA,-0.0354
15,TGAATGACTGTA,0.156
16,TGATCCAACGTA,0.112
17,TGTCATGTGGTA,0.631
18,CCGCACGTGGTA,0.749
19,TAGAACGTGGTA,0.512
20,TGACACTTGGTA,0.134
21,TGAGTGCTGGTA,0.0362
22,TTACCCGTGGTA,0.282
23,TGACTAAGGGTA,-0.0349
24,TGAACACCCGTA,0.244
25,TGATGGCCTGTA,0.18

row,Sequence,binding signal (log2 normalized fluorescence)
1,TGACGCCATGTA,0.354
2,TGACATTTTGTA,0.00501
3,TGAGATACAGTA,-0.0352
4,TGAGTCTATGTA,-0.0268
5,TGACGTTCTGTA,0.244
6,TGATGCATTGTA,0.224
7,TGATTTTGCGTA,-0.135
8,TGACGCTCAGTA,0.147
9,TGACAACCCGTA,0.233
10,TGACGCAACGTA,0.299
11,TGATAGCACGTA,0.212
12,TGACTGCACGTA,0.216
13,TGATACTGGGTA,-0.221
14,TGATTCGCGGTA,-0.0184
15,TGACCTCCCGTA,0.167
16,TGATTCCGAGTA,-0.0488
17,TGATTAATAGTA,-0.0543
18,TGAAATCGAGTA,-0.0164
19,TGAAATTGAGTA,-0.078
20,TGACTATAAGTA,-0.0234
21,TGAAATCTCGTA,-0.0492
22,TGAAGAGTGGTA,0.152
23,TGACACGTACGA,0.276
24,TGATCTGAAGTA,0.0504
25,CGACCCGTGGTT,0.28

row,Sequence,binding signal (log2 normalized fluorescence)
1,TGAATATGAGTA,-0.114
2,TGATCAAGGGTA,0.0432
3,TGAAAAGCAGTA,-0.0179
4,TGAAATCTAGTA,-0.187
5,TGATCGCCGGTA,-0.0432
6,TGACGTCTAGTA,-0.00371
7,TGACACGCTGTA,0.477
8,CGTTACCCTGTG,0.0441
9,TGATGACTAGTA,0.0752
10,TTACAGGTGGTA,0.554
11,TGAGGGGTAGTA,0.257
12,CGACTCGGGGTT,0.16
13,TGAAGAGCCGTA,-0.0183
14,TGACGCGTAGTA,0.326
15,TGACTCCTCGTA,0.0901
16,TGAGAATTTGTA,-0.254
17,TGACCTAGTGTA,0.257
18,TGAAAAGCGGTA,0.0993
19,TGATAGGCAGTA,-0.124
20,TAATATGGGGTT,0.347
21,TGACAATCAGTA,0.0985
22,TGAAAGAGTGTA,0.0309
23,TGATTCACTGTA,0.149
24,TGAGACACTGTA,0.191
25,TGAGAATAAGTA,-0.282

row,Sequence,binding signal (log2 normalized fluorescence)
1,TGACTGTGCGTA,0.309
2,TGATAATAGGTA,-0.135
3,TGAAAGGTAGTA,-0.0853
4,TGACCGGTAGTA,-0.0532
5,TGAAGATTAGTA,-0.0685
6,TGATGCCCAGTA,0.07
7,TGAACATAGGTA,0.161
8,TGACTGGCGGTA,-0.0112
9,TGATAGTCTGTA,0.068
10,TGACACGTTGTC,0.619
11,TGAACGAGGGTA,0.254
12,TGATCTGGCGTA,-0.126
13,TGACACGTGTAC,0.823
14,TGACGGTACGTA,0.0942
15,TGATTTAGTGTA,0.00668
16,TGACGTGAGGTA,0.455
17,AATTCGGAACAG,0.132
18,TGAACTATAGTA,0.0698
19,TGAAGGAATGTA,0.0682
20,TGAGTCTTGGTA,-0.116
21,TGACAAGAGGTA,0.126
22,TGAAGAGTCGTA,-0.115
23,TGAGTCTCCGTA,-0.254
24,TGAGGATCTGTA,-0.115
25,TGAAGATCTGTA,-0.0224

row,Sequence,binding signal (log2 normalized fluorescence)
1,TGATTACAGGTA,0.00407
2,TGAGTAACGGTA,-0.0861
3,TGATGACCTGTA,0.232
4,TGAGAGCAGGTA,0.0373
5,TGAACCCAAGTA,0.296
6,TGAGGGTAAGTA,0.0547
7,GTCCACGTGGTA,0.808
8,TGACCGCGTGTA,0.802
9,TGAGCCGCCGTA,-0.082
10,TGACAGAATGTA,0.243
11,CGACCCGGGGTA,0.0817
12,TGAAGTGGGGTA,0.177
13,TGAACCTGAGTA,0.125
14,TGATTGCGCGTA,0.147
15,TGAATAAATGTA,0.052
16,TGACGCGAAGTA,0.131
17,TGACCGTTGGTA,0.072
18,TGACCATTTGTA,0.0484
19,TGACGGCTAGTA,0.178
20,TGTCACTTGATA,0.183
21,TGAGAGATAGTA,-0.117
22,TGACAGTCCGTA,-0.0613
23,TGATAGCGAGTA,0.124
24,TGACACGTAGAG,0.293
25,TGATCCCTCGTA,0.112

row,Sequence,binding signal (log2 normalized fluorescence)
1,TTGAACGTGGTA,0.497
2,TGATAGAGGGTA,-0.0227
3,TGATAATTGGTA,-0.103
4,TGACATACAGTA,0.302
5,TGAGAAGGTGTA,0.0344
6,TGACTCCGGGTA,0.105
7,TGAGTTAAAGTA,-0.056
8,TGCAGCGTGGTA,0.423
9,TGAGCAATTGTA,-0.0816
10,TGAATTGCAGTA,0.275
11,TGACAGGTGGTA,0.417
12,TGACACGTCCGA,0.416
13,TGAGAAATAGTA,-0.305
14,TGAGGCGCTGTA,0.143
15,TGAGCTGTCGTA,-0.0563
16,TCACCCGTGATA,0.265
17,TGATGTATTGTA,-0.0146
18,TGAGTTGGCGTA,-0.0561
19,TGAGTCCGTGTA,0.118
20,TGAACAGAGGTA,-0.00418
21,TAAAACGTGTTA,0.668
22,TGAACTGGGGTA,0.29
23,TGAAAGACTGTA,0.191
24,TGAGATCAGGTA,0.0988
25,TGAGGCAAAGTA,0.142

row,Sequence,binding signal (log2 normalized fluorescence)
1,AGACAAGTGCTA,0.353
2,TGACACGCGGTG,0.585
3,TGATTGGGGGTA,0.502
4,TGAAGTGAAGTA,-0.142
5,TGAATAACTGTA,-0.0712
6,TGAGCCGTTGTA,-0.0374
7,TGAGGTCATGTA,0.00694
8,TGAATGCAGGTA,0.138
9,TGAGCTTGCGTA,0.165
10,TGAATACTGGTA,0.0621
11,TGATACCCAGTA,0.0519
12,TGCCAAGTGGTG,0.205
13,CGGCACGTGGTA,0.723
14,TGACGCGTCGTA,0.46
15,TGAAATGTGATA,0.419
16,TGAGTTGTGGTA,0.0821
17,TGAGACGTAGTA,-0.176
18,TGATAGTGGGTA,-0.0434
19,TGATACGAGGTA,0.0752
20,TGATCGGTCGTA,-0.276
21,TGATCGGGGGTA,0.737
22,CAACACGTGGTA,0.937
23,TGACACGTACCA,0.476
24,TGACACGCGAGA,0.438
25,TGAATTTCCGTA,-0.0611

row,Sequence,binding signal (log2 normalized fluorescence)
1,CGACACGTGGTA,1.07
2,TGAGGCTCCGTA,0.0148
3,TAACACGTGATA,0.646
4,TGATTCCTTGTA,0.02
5,GGCCACTTGGTA,0.115
6,TGACACATGGTT,0.817
7,TGATACCCTGTA,0.086
8,TGAGAGAGTGTA,0.119
9,GAAGCATTGCAT,0.288
10,TGATCAAAGGTA,-0.134
11,TGACATGGGGTA,0.427
12,CGACACTTGGTG,0.249
13,AGACATGTGGTG,0.734
14,TGATACAACGTA,0.133
15,TGAAGCGGTGTA,0.0582
16,TGAGACGGAGTA,-0.0188
17,TGAGAAGCGGTA,-0.0504
18,TGACTAGGGGTA,0.208
19,TGAATGCCTGTA,0.159
20,TGAGCATGCGTA,0.461
21,TGACGCGCCGTA,0.261
22,TGACAGTTCGTA,0.106
23,TGACTTAGGGTA,0.00404
24,TGACACCGTGTA,0.512
25,TGAACTCACGTA,0.179

row,Sequence,binding signal (log2 normalized fluorescence)
1,TGAAGTTCAGTA,0.0781
2,TGATTTCCGGTA,-0.167
3,TGACGAATCGTA,0.0673
4,TGATCAACTGTA,0.137
5,TGAACTTAAGTA,0.0282
6,TGATACACAGTA,0.0561
7,TGACCTTTAGTA,0.0418
8,TGATGTCGGGTA,0.0547
9,TGATCTGGTGTA,-0.0888
10,TGACACGGGGTA,0.48
11,TGAGGTAGCGTA,-0.0605
12,TGAACAGTTGTA,-0.0199
13,TGAATCGACGTA,0.0788
14,TCACCGGTGGTA,0.124
15,TGAAGTTGCGTA,-0.0361
16,TGACACGTGTGA,0.872
17,TGATGTCAAGTA,0.06
18,TGAGGCTAGGTA,-0.143
19,TGACGTGACGTA,-0.0134
20,TGATGGTGGGTA,0.165
21,TGAAACGGGGTT,0.189
22,TGGCCCGTGGTA,0.26
23,TGAAGATATGTA,-0.115
24,TGATGAGCCGTA,-0.152
25,TGAGTACGCGTA,0.244
